From ChEMBL document CHEMBL1201862, “PubChem BioAssay data set” (2004)
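Following 48 hours of exposure in 96-well plates, responses at five concentrations were used to interpolate endpoints linearly. GI50: concentration for 50% inhibition of growth.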 The source made the active and inactive calls. Cut-off read from the data, not from the text of the source: active = GI50 up to about 1.1 µM and inactive = higher.

Tested on: NCI-H322M
Test: NCI-60 cell line screen, 48 h

Row | SMILES | GI50
1 | c1nc(NCCc2c[nH]cn2)c2nc[nH]c2n1 | inactive: > 100 µM
2 | CCCCc1ccc(Nc2nc(Cl)c3[nH]cnc3n2)cc1 | inactive: 37.2 µM
3 | COC(=O)C(=O)C(C(=O)C(=O)Nc1cc(C)ccc1C)c1nc2ccc(C(=O)c3ccccc3)cc2nc1O (stereo unspecified) | inactive: > 100 µM
4 | COc1ccc(CC2C(=O)NC(C)C(=O)N(C)C3C(=O)N(C)C(Cc4ccc(O)c(c4)Oc4ccc(cc4)C3O)C(=O)NC(C)C(=O)NC(C)C(=O)N2C)cc1 (stereo unspecified) | active: 0.00537 µM
5 | CCOC(=O)c1ccc(/N=C/C=C(\Nc2ccc(C(=O)OCC)cc2)c2ccc3ccccc3c2)cc1 | inactive: 25.5 µM
6 | CCN1CCC(O)(c2ccccc2)C(C(=O)c2ccccc2)C1 (stereo unspecified) | inactive: > 96.4 µM
7 | NC(=O)c1nnsc1NC=O | inactive: > 100 µM
8 | CC(C)C1OC(/C=C/c2ccccc2)OCC1(C)C (stereo unspecified) | inactive: 38.1 µM
9 | c1ccc(CSP234N5CCN2CCN3CCN4CC5)c(CSP234N5CCN2CCN3CCN4CC5)c1 | inactive: > 100 µM
10 | COc1ccc(-c2cc(-c3cc(C)ccc3O)nc(O)n2)cc1 | inactive: > 100 µM
11 | CCOC(=O)C(NC(=O)OC(C)(C)C)C(=O)OCC | inactive: > 100 µM
12 | N=c1oc2ccc(Cl)cc2cc1C(=O)Nc1ccccc1 | inactive: > 100 µM
13 | COc1c2ccsc2c(OC)c2ccsc12 | inactive: > 100 µM
14 | O=C1c2cccc3cc([N+](=O)[O-])cc(c23)C(=O)N1NC1=NCCN1 | inactive: > 100 µM
15 | N=C(N)NS(=O)(=O)c1ccc(NC(=O)c2ccc(Cl)c3c(Nc4ccc(S(=O)(=O)N=C(N)N)cc4)c4ccccc4nc23)cc1 | inactive: 66.5 µM
16 | S=c1sc2sc(=S)sc2s1 | inactive: > 100 µM
17 | CC1(C)C2CC1C(/C=N\OCC(=O)O)=CC2=O (stereo unspecified) | inactive: > 100 µM
18 | COc1cc(C(=O)NC2CCc3cc(OC)c(OC)c(OC)c3-c3ccc(OC)c(=O)cc32)cc(OC)c1OC (stereo unspecified) | active: 0.186 µM
19 | CC(C)(C)OC(=O)N1CC(COS(C)(=O)=O)c2ccc(O)cc21 (stereo unspecified) | inactive: 2.87 µM
20 | COc1ccccc1C1SCC(=O)N1c1ccc(-c2ccc(-n3c(-c4ccccc4)nc4ccccc4c3=O)cc2)cc1 (stereo unspecified) | inactive: > 100 µM
21 | O=c1[nH]ccc2c1ccn2C1CC(O)C(CO)O1 (stereo unspecified) | inactive: > 100 µM
22 | COc1ccc(NC(=O)CC2SC(Nc3ccc(Cl)cc3C)=NC2=O)c([N+](=O)[O-])c1 (stereo unspecified) | inactive: > 100 µM

Row | SMILES | GI50
23 | COc1ccccc1/N=N/c1c(-c2ccccc2)nn(C(=O)CC(=O)Nc2cccc(C)c2)c1-c1ccccc1 | inactive: 67.3 µM
24 | CCOC(=S)SC/C(=N\OC(C)(C)OC)c1ccccc1 | inactive: 95.3 µM
25 | N=C(N)SCCCN | inactive: 22.4 µM
26 | CCOC(=O)Cc1nc2nn(Cc3ccccc3)cc2c(=O)[nH]1 | inactive: > 100 µM
27 | CSc1nc(SC)c2c(CN=[N+]=[N-])c(Br)n(Cc3ccccc3)c2n1 | inactive: > 100 µM
28 | COc1ccccc1C1c2cc3c(cc2OC2(OC)COC(=O)C12)OCO3 (stereo unspecified) | inactive: 40.6 µM
29 | COC(=O)CCCCC/C(=C\C(=O)C(Cl)(Cl)Cl)OC | inactive: 26.2 µM
30 | O=C(N/N=C/c1ccco1)c1cc(I)cc(I)c1O | inactive: 13.7 µM
31 | COC(=O)c1ccccc1C1CN=NC12Cc1cc3c(cc1C2=O)CCC3 (stereo unspecified) | inactive: > 100 µM
32 | OCC(O)C(O)C(O)c1nn(-c2ccc(F)cc2)c2nc3cc(Cl)c(Cl)cc3nc12 (stereo unspecified) | inactive: 30.7 µM
33 | CCCCN(CCCC)C(=C(C(Cl)=C(Cl)Cl)[N+](=O)[O-])N(CCCC)CCCC | inactive: 48.8 µM
34 | COc1ccc(OC)c(C2Cc3cnc4nc(N)nc(N)c4c3C2)c1 (stereo unspecified) | inactive: 22.9 µM
35 | Oc1ccc(-c2cc(-c3cc(-c4ccc(O)cc4)no3)on2)cc1 | inactive: > 93.3 µM
36 | CC(=O)OC1C(=O)C(O)C(C)OC1O[C@@H]1C[C@@]2(C)[C@@H]3CC=C4[C@@H](C[C@H](O)C(=O)C4(C)C)[C@]3(C)C(=O)C[C@]2(C)[C@H]1[C@@](C)(O)C(=O)/C=C/C(C)(C)O (stereo partly specified) | inactive: > 7.4 µM
37 | O=C1[C@H]2ON(c3ccccc3)C(c3cccc([N+](=O)[O-])c3)[C@H]2C(=O)N1c1ccc(Cc2ccc(N3C(=O)[C@@H]4ON(c5ccccc5)C(c5cccc([N+](=O)[O-])c5)[C@@H]4C3=O)cc2)cc1 (stereo partly specified) | inactive: > 100 µM
38 | COC1(OC)C=CC2C1C1C=CC2C1(OC)OC (stereo unspecified) | inactive: > 100 µM
39 | COc1cccc2c1/c(=C/c1ccc(N(C)C)cc1)c1cc(-c3ccccc3)[n+](C)n12 | active: 0.415 µM
40 | COC(=O)C1Cc2cc3c(cc2C1=O)CCC3 (stereo unspecified) | inactive: > 100 µM
41 | CN(C)c1ccc(/C=C2\N=C(NNc3ccccc3)NC2=O)cc1 | inactive: 35.6 µM
42 | FC(F)(F)c1ccc2nc(Sc3ccccn3)cnc2c1 | inactive: 37.2 µM
43 | CNc1ccc(C(=O)CC(O)CCC(C)C2OC(=O)CC(O)CC(=O)CC(O)CC(O)CC(O)CC(O)CC3(O)CC(O)C(C(=O)N4CCOCC4)C(CC(OC4OC(C)C(O)C(N)C4O)\C=C/C=C\C=C/C=C/C=C/C=C\C=C/C2C)O3)cc1 (stereo unspecified) | active: 0.259 µM
44 | OC1(c2ccccc2)CC2CCC(C1)N2CCCC1(c2ccc(F)cc2)OCCO1 (stereo unspecified) | inactive: > 100 µM

Row | SMILES | GI50
45 | COc1ccc(OC)c(NCC(=O)Nn2cnc3ccc(S(=O)(=O)Nc4cc(OC)ccc4OC)cc3c2=O)c1 | inactive: > 100 µM
46 | Cn1cc2c(=O)n3ncn(-c4ccc(Br)cc4)c3nc2n1 | inactive: > 100 µM
47 | N#Cc1ccc(Oc2nc3ccccc3nc2C(=O)O)cc1 | inactive: > 100 µM
48 | O=C1NNC2(C(=O)N1)c1ccccc1-c1ccccc12 | inactive: > 10 µM
49 | Cc1cc2c(cc1C)[n+]([O-])c(C(=O)C/C(=N/NC(=S)NN)C(=O)Nc1cccc(C(F)(F)F)c1)c[n+]2[O-] | inactive: > 100 µM
50 | CC(=O)OCC1OC(Oc2cc(C)c(O)cc2C/C=C(\C)CC/C=C(\C)C[C@@H](C=C(C)C)OC(C)=O)C(O)C(OC(C)=O)C1OC(C)=O (stereo partly specified) | inactive: > 50 µM
51 | CN(C)c1ccc(C2C(Cl)C(=O)N2NC(=O)c2c(Cl)c(Cl)c(Cl)c(Cl)c2-c2nc3ccccc3[nH]2)cc1 (stereo unspecified) | inactive: 30.8 µM
52 | COC(=O)C1=C(OC(=O)/C(=C/c2ccccc2)c2ccc([N+](=O)[O-])cc2)C(C(=O)OC)[C@@]2(O)[C@@H](C(=O)OC)[C@H](C)C[C@@H]1[C@@H]2C(=O)OC (stereo partly specified) | inactive: > 100 µM
53 | CCc1ccccc1NC(=O)C1=C(C)NC(C)=C(C(=O)Nc2ccccc2CC)C1c1ccc(NC(C)=O)cc1 | inactive: 32.6 µM
54 | COc1ccc2oc(=N)c(C(N)=O)cc2c1 | inactive: 60.4 µM
55 | Cc1nc(Nc2nnc(-c3cc([N+](=O)[O-])cc([N+](=O)[O-])c3C)o2)sc1C(=O)CC(=O)Cc1nc2ccc(Cl)cc2nc1O | inactive: > 100 µM
56 | COc1ccc(/C=C/C2=NN(c3cccc(S(=O)(=O)O)c3)C3(C2)SCC(=O)N3c2nc3ccccc3s2)cc1 (stereo unspecified) | inactive: 93.1 µM
57 | NNC(=S)N/N=C(\C(=O)Nc1cccc(O)c1)C1C(=O)NC(=S)NC1=O | inactive: > 100 µM
58 | O=C(O)CNc1c2ccccc2nc2ccccc12 | inactive: > 100 µM
59 | N#CCCN(c1ccc(/C=C2\N=C(Cc3ccccc3)OC2=O)cc1)S(=O)(=O)c1ccccc1 | inactive: > 100 µM
60 | CCOC(=O)N[C@@H]1C2CC(=O)C(O2)[C@@H]1OC (stereo partly specified) | inactive: > 100 µM
61 | O=C1C2C=CC(n3[nH]c(=O)n(Cc4ccccc4)c3=O)CC2C(=O)N1c1cccc(Cl)c1 (stereo unspecified) | inactive: > 100 µM
62 | Cn1cc(C=C(C#N)C#N)c(=O)n(C)c1=O | inactive: > 100 µM
63 | COc1ccc(/C=C2\NC(=S)N(CN3CCOCC3)C2=O)cc1 | inactive: > 100 µM
64 | COC(=O)Nc1nc2cc(NC(=O)c3ccc(I)cc3)ccc2[nH]1 | inactive: > 100 µM
65 | CCC(C)SC1SCC2C(=O)N(C)C3(CC3C)C(=O)OCC(NC(=O)c3nc4ccccc4cc3O)C(=O)NC(C)C(=O)N(C)C1C(=O)N(C)C1(CC1C)C(=O)OCC(NC(=O)c1nc3ccccc3cc1O)C(=O)NC(C)C(=O)N2C (stereo unspecified) | active: 5.16e-05 µM
66 | COc1c2ccoc2c(S(=O)(=O)Nc2ccc(Cl)cc2)c2oc(C)cc(=O)c12 | inactive: > 100 µM

Row | SMILES | GI50
67 | CC1(C)CC(=O)c2[nH]c3ccccc3c2CC(=O)NCCc2cn1cn2 | inactive: > 100 µM
68 | C=CCc1ccccc1C1CC2(C(=O)OC)OC1C(C(=O)OC)=C2C(=O)OC (stereo unspecified) | inactive: > 10 µM
69 | CC1(C2COC(=O)C2)SCCCS1 (stereo unspecified) | inactive: > 100 µM
70 | N#Cc1ccc(N2CCOCC2)cc1 | inactive: > 100 µM
71 | Oc1ccc(/C=C\c2nnc(/C=C\c3ccc(O)c(O)c3)s2)cc1O | inactive: 18.3 µM
72 | COC(=O)/C(C#N)=C(\N)C(Cl)(Cl)Cl | inactive: 5.69 µM
73 | Cc1cc(C)c(N[S+]([O-])c2cccc([N+](=O)[O-])c2)c(C)c1 (stereo unspecified) | inactive: > 100 µM
74 | CC(C)=CC(=O)CC(=O)C(=O)Nc1ccc(C)c(C)c1 | inactive: > 100 µM
75 | COc1ccc(CNc2cnc3ccc(N)cc3n2)cc1 | inactive: > 100 µM
76 | COc1cccc(C2c3cc4c(cc3OC(NNS(=O)(=O)c3ccc(C)cc3)C2C)OCO4)c1OC (stereo unspecified) | inactive: 4.63 µM
77 | O=C(O)CCc1nn2c(nc1=O)sc1ccc3ccccc3c12 | inactive: > 100 µM
78 | COc1cc(O)c2c(c1)C(=O)c1cc3c(c(O)c1C2=O)C(OC1OC(C)C(OC)C(O)C1OC)C(OC)C(C)(O)C3=O (stereo unspecified) | inactive: 5.9 µM
79 | Cc1ccc(CNNC(=O)c2cc[n+]([BH2-]C#N)cc2)cc1 | inactive: > 100 µM
80 | COC(=O)[C@]1(c2cc3ccccc3[nH]2)CC2CN(C(=O)OCc3ccccc3)C1C=C2OC (stereo partly specified) | inactive: 50.9 µM
81 | COC(=O)C1=Cc2c(cc(OC)c(OC)c2OC)[C@H](c2ccc(OC)c(OC)c2OC)C1C(=O)OC (stereo partly specified) | inactive: > 100 µM
82 | Oc1ccc(-c2nc3ccc(Br)cc3s2)cc1 | inactive: 18.7 µM
83 | Cc1cc(=O)oc2c(C)c(O)ccc12 | inactive: > 100 µM
84 | CC1(C)CC[C@]2(C(=O)O)CC[C@]3(C)C(=CC[C@@H]4[C@@]5(C)C[C@H](O)[C@H](O)[C@@](C)(C(=O)O)[C@@H]5CC[C@]43C)[C@@H]2C1 | inactive: > 100 µM
85 | COC(=O)NCCc1n[nH]c2c1C(=O)C=C(Nc1ccccc1OC)C2=O | inactive: 27.2 µM
86 | CCC[C@@H]1C(=O)N=C(N)N1C(=O)OCc1ccccc1 | inactive: > 100 µM
